One experiment relates to HSkMC. Put plainly: cytotoxicity call (relative viability < 0.9). Conditions: 10 µM.
The next experiment has as its system HepG2. Put plainly: cytotoxicity call (relative viability < 0.9). As to conditions: 10 µM.
For a further experiment, the system named is S. aureus RN4220. Put plainly: growth inhibition call (relative growth <= 0.2). As to conditions: 50 µM.

Structures are written as SMILES. The list shows a part of the results.

The source of these data is the antibiotic and cytotoxicity screens of Wong et al. (2023).

Consider `C[C@@H]1CN([C@H](C)CO)C(=O)c2cc(NS(=O)(=O)c3cccs3)ccc2O[C@@H](C)CCCCO[C@H]1CN(C)Cc1ccc(C(=O)O)cc1`, for which the cytotoxicity call in the experiment on HSkMC and in the experiment on HepG2 was “inactive” throughout. The growth inhibition call in the experiment on S. aureus RN4220 was “inactive”.
For the molecule `C[C@@H]1CCCCO[C@H](CN(C)S(=O)(=O)c2ccccc2)[C@@H](C)CN([C@H](C)CO)C(=O)c2cc(NC(=O)C3CCCCC3)ccc2O1`, the cytotoxicity call in the experiment on HSkMC and in the experiment with HepG2 was “inactive” in each case. The growth inhibition call in the experiment with S. aureus RN4220 is “inactive”.
Regarding `COCCOC(=O)N1C(=O)[C@@]2(c3cc(C#CC4(O)CCCCCC4)ccc31)[C@H](c1ccc(OCCO)cc1)N1[C@H](c3ccccc3)[C@H](c3ccccc3)OC(=O)[C@H]1[C@@H]2C(=O)NC[C@H](O)c1ccccc1`, the cytotoxicity call in the experiment on HSkMC and in the experiment with HepG2 was “inactive” each time. Moreover, the growth inhibition call in the experiment with S. aureus RN4220 was “inactive”.
Turning to `Cc1noc(C)c1NC(=O)Nc1ccc2c(c1)CC(=O)N([C@H](C)CO)C[C@@H](C)[C@@H](CN(C)Cc1ccc(Cl)c(Cl)c1)O2`, the cytotoxicity call in the experiment with HSkMC and in the experiment on HepG2 was “inactive” each time. The growth inhibition call with S. aureus RN4220 was “inactive”.
For `C[C@@H]1CN([C@@H](C)CO)C(=O)c2cc(NC(=O)CCN3CCOCC3)ccc2O[C@@H]1CN(C)C(=O)Nc1ccc2c(c1)OCO2`, the cytotoxicity call in the experiment on HSkMC is “inactive”. For the same molecule, in the experiment on HepG2, the cytotoxicity call was “active”. Moreover, the growth inhibition call with S. aureus RN4220 was “inactive”.
As to `C[C@@H]1CN([C@H](C)CO)S(=O)(=O)c2ccc(C3=CCCC3)cc2O[C@@H]1CN(C)C(=O)c1cnccn1`, the cytotoxicity call in the experiment on HSkMC and in the experiment on HepG2 was “inactive” in each case. In addition, in the experiment on S. aureus RN4220, the growth inhibition call was “inactive”.
Consider `C[C@@H]1CCCCO[C@H](CN(C)Cc2ccc3c(c2)OCO3)[C@@H](C)CN([C@@H](C)CO)C(=O)c2cc(NS(=O)(=O)c3cccs3)ccc2O1`, for which the cytotoxicity call in the experiment with HSkMC and in the experiment with HepG2 was “inactive” throughout. Besides, the growth inhibition call in the experiment on S. aureus RN4220 is “inactive”.
Turning to `O=C(CN1CCOCC1)NCC[C@@H]1CC[C@H](NC(=O)Cc2ccccn2)[C@@H](CO)O1`, the cytotoxicity call in the experiment on HSkMC (human skeletal muscle cells) and with HepG2 was “inactive” throughout. In addition, the growth inhibition call in the experiment on S. aureus RN4220 is “inactive”.
